In all, about 50,000 compounds went through this assay and about 800 (1.6%) showed an effect of 50% or more. This is one part of the list.

This assay has as its target Bcl-2-like protein 10 (Homo sapiens) (UniProt Q9HD36). In words: Phenotype converters, Bcl-B/TR3 peptide binding displacement, primary biochemical FP (AID 1240).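 Also: 0% = Bcl-B with tracer peptide and DMSO and 100% = tracer peptide lacking Bcl-B.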 The settings on record: GST-Bcl-B / FITC-TR3 peptide fluorescence polarization; stronger effect = higher value; compound at 3.75 mg/L. Background: Fluorescence polarisation rises when a labelled molecule tumbles more slowly, as on binding a larger partner.
Chain of UniProt Q9HD36 (Q9HD36 whole entry, looked up): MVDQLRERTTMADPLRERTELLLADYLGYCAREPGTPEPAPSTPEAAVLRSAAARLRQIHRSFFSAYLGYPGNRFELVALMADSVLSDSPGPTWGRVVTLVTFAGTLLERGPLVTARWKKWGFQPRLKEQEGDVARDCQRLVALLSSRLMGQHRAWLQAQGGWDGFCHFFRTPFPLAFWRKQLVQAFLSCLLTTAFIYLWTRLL
Consider `Cc1c(NC(=O)/C=C/c2ccc(Br)cc2)c(=O)n(-c2ccccc2)n1C`, for which the displacement is -1.6%.
Next, `C=CCNC(=O)C(=O)Nc1ccc(OC)c(Cl)c1`: 11.2%; `COc1cc(/C=C2\SC(=Nc3ccccc3)N(c3ccccc3)C2=O)cc(Br)c1OC`: 4.4%; `Cc1ccc(-n2c(C)cc(/C=N/NC(=O)c3ccncc3)c2C)cc1`: -24%.
Next, `Cc1c(OCC(=O)c2ccccc2)ccc2c3c(c(=O)oc12)CCCC3`: -7.9%.
As to `COc1ccc(CC(=O)O/N=C(\N)c2ccc([N+](=O)[O-])cc2)cc1OC`, the displacement was 6.1%.
With `CCOc1cc(OCC)cc(C(=O)Nc2ccccn2)c1`, the displacement is -0.7%.
Next, `CCC(Oc1ccccc1)C(=O)Nc1ccc(S(=O)(=O)Nc2cnc3ccccc3n2)cc1` (centres undefined): -6.9%; `COc1ccc(/C=N/c2sc(C)c(C)c2C#N)cc1`: -10.4%; `COc1ccc(/C(=N/O)C(C)(C)NO)cc1`: 12.8%.
In the case of `CC(C)NC(=O)COc1ccc(C=C2C(=O)NC(=O)NC2=O)cc1`, the displacement came to 1.8%.
Next, `CCOc1ccc2c(c1)C(C)CC(C)(C)N2C(=O)Nc1ccccc1` (centres undefined): 2.4%; `CC(=O)Oc1ccc(C(=O)Nc2ccc(C(=O)O)cc2)cc1`: -0.3%; `O=C1Oc2ccccc2C(=O)/C1=C/c1cccc2ccc(O)cc12`: 1.8%.
Next, `Nc1c(Cl)cc(N2C(=O)C=CC2=O)cc1Cl`: 10.9%; `O=C1CN(C(=O)OCc2ccccc2)C(c2ccccc2)c2cc(Br)ccc2N1` (centres undefined): -1.1%.
Next, `CCOC(=O)c1c(NC(=O)c2ccccc2F)sc2c1CCCCCC2`: -7.8%.
In the case of `COc1ccc(/C=C2/C=C(c3ccccc3)OC2=O)cc1`, the displacement was -15.2%.
Next, `C/C=C/C(=O)N1c2ccc(OC)cc2-c2c(ssc2=S)C1(C)C`: 3.1%; `O=C(NCC1CCCO1)c1ccc(C2SCC(=O)N2Cc2ccccc2)cc1` (centres undefined): -12.3%.
On to `Cn1cc(/C=C/c2nc3ccccc3c(=O)n2-c2ccc([N+](=O)[O-])cc2)c2ccccc21`, for which the displacement stood at 5.5%.
Next, `O=[N+]([O-])c1ccc2c(c1)S(=O)(=O)N=C2Nc1ccc(Br)cc1`: 14.7%; `N#C/C(=C\c1c(O)n(-c2c(Cl)cccc2Cl)c2ccccc12)C(N)=NCc1ccccc1`: -5%.
Next, `O=C(Nc1ccc([N+](=O)[O-])cc1)C1C2C3CCC(C3)C12` (centres undefined): -3.5%.
As to `O=C(NNc1ccccc1)c1ccccc1Cl`, the displacement is -1.2%.
Next, `CCc1ccccc1NC(=O)CC1Sc2ccccc2NC1=O` (centres undefined): 10.7%.
Next, `O=C(NC(NC(=S)Nc1ccccc1I)C(Cl)(Cl)Cl)c1cccc([N+](=O)[O-])c1` (centres undefined): -3.9%.
Next, `CCOC(=O)c1ccc(NC(=O)C(=O)NCc2ccc(C)cc2)cc1`: 8.8%.
Turning to `CC1(C)C(c2ccco2)=[N+]([O-])C2(CCCCCC2=O)N1O` (centres undefined), the displacement amounted to 1.1%.
Next, `O=C(NNC(=O)c1ccco1)c1cccc(Cl)c1`: -8.7%; `O=C(Cn1cc(/C=C2/C(=O)NC(=S)N(c3ccccc3F)C2=O)c2ccccc21)Nc1ccccc1`: 30.7%; `CN(C)CCOCCOCCN(C)C`: 10.5%.
Next, `COC(=O)c1sc(NC(=O)C2CC3CCC2C3)c(C(N)=O)c1C` (centres undefined): -4%.
Next, `CSCCNS(=O)(=O)c1ccc(C)c([N+](=O)[O-])c1`: -12.8%; `COCCNCCOc1c(C)cc(Cl)cc1Cl`: -9.3%; `Cn1c(=O)c2c(ncn2CC(=O)N2CCN(Cc3ccccc3)CC2)n(C)c1=O`: -3.8%.
Turning to `C=CCN1C(=O)/C(=C/c2ccc(Cl)cc2)C(=O)NC1=S`, the displacement was -0.7%.
Next, `CCOC(=O)c1c(N)sc(C(=O)Nc2cc(C)cc(C)c2)c1C`: 4.1%.
Next, `O=C1/C(=C/c2ccccc2)SC(=S)N1c1ccccc1Cl`: -7.4%; `Cc1ccc2oc(-c3cc(NC(=O)c4ccc(C(C)(C)C)cc4)ccc3O)nc2c1`: 45.9%.
Next, `Cn1c(CN2CCCC2)c(-c2ccccc2)c2cc([N+](=O)[O-])ccc21`: -0.8%; `CC(C)CN1C(=O)/C(=C/c2ccco2)SC1=S`: 18.1%; `Cc1cc(C)nc(/N=C(/N)Nc2cccc(OCc3ccccc3)c2)n1`: -4.3%.
For the compound `Clc1ccc(Nc2nc(-c3ccncc3)nc3ccccc23)cc1`, the displacement stood at 109%.
Next, `Cc1ccc(C2CC(C(F)(F)F)n3nc(C(=O)Nc4cc(C(F)(F)F)ccc4Cl)cc3N2)cc1` (centres undefined): 15.3%; `O=S(=O)(c1ccc(Cl)cc1)N1CCN(Cc2cccc(F)c2)CC1`: -16.5%; `CC1Oc2ccccc2C=C1/C=C1\SC(=S)N(CCc2ccccc2)C1=O` (centres undefined): 11.2%.
Take `NC(=O)C1=CC2([N+](=O)[O-])CN(Cc3ccccc3)CC([N+](=O)[O-])(C1)C2` (centres undefined): the displacement was determined as 36%.
As to `COc1cc(/C=N/N2C(=O)C3C4C=CC(C4)C3C2=O)cc(I)c1O` (centres undefined), the displacement stood at 3.3%.
Next, `COc1ccc(-c2cc(-c3ccccc3O)[nH]n2)cc1`: 2.8%; `Cn1ccnc1C(O)c1cc(C(C)(C)C)c(O)c(C(C)(C)C)c1` (centres undefined): 8.7%; `COc1ccc(N(CC(=O)Nc2ccccc2Br)S(C)(=O)=O)cc1`: -1.5%.
Next, `Cc1ccc(SCC(=O)Nc2cccc([N+](=O)[O-])c2)cc1`: 7.9%; `CCOC(=O)C1=C(O)/C(=C/c2ccccc2)SC1=Nc1ccc(OC)cc1`: -1.3%; `O=C(COc1ccc(Br)cc1)Nc1ccc2nn(-c3ccc(F)cc3)nc2c1`: 50.3%.
Next, `CC(=O)N1CCN(c2ccc(NC(=O)COc3ccccc3C)cc2)CC1`: 15.4%.
In the case of `COCCNC(=O)c1cc2nc(-c3ccc(Cl)c(Cl)c3)cc(C(F)(F)F)n2n1`, the displacement is -13%.
Next, `Clc1ccc(N2CCN(N=Cc3ccc(Cl)c(Cl)c3)CC2)cc1`: -2.6%; `CC1=C(C(=O)Nc2ccccc2Cl)C(c2ccccc2F)NC(=S)N1` (centres undefined): -14.8%; `CCC(=O)N1c2ccccc2NC2=C(C(=O)CC(c3ccccc3)C2)C1c1cccc([N+](=O)[O-])c1` (centres undefined): -7.8%.
Next, `CCSC1=C(C#N)C(c2ccc(O)cc2)C(C(=O)Nc2ccccc2)=C(C)N1` (centres undefined): 2.3%.
For the compound `CCC1(C)CC(CCNCc2ccc(F)cc2)(c2ccccc2OC)CCO1` (centres undefined), the displacement was determined as 2.7%.
Next, `O=C(O)COc1ccccc1/C=N/NC(=O)Cc1ccc(Br)c2ccccc12`: 10.1%; `Cc1n[nH]c(C)c1CCCCCCOc1ccc(F)cc1`: 6.9%; `Cc1c(C(=O)N2CCCCC2)sc(NC(=O)Cc2ccccc2)c1C#N`: -4.5%.
Next, `O=C1N=c2ccc([N+](=O)[O-])cc2=C1c1sc(=S)n(Cc2ccccc2)c1O`: 1.1%.
Next, `Cc1ccc(S(=O)(=O)N2CCN(Cc3ccccc3[N+](=O)[O-])CC2)cc1`: 7.8%; `O=C(C1CCCCC1)N(Cc1ccccc1)Cc1ccccc1`: -9.6%.
Take `Cc1cccc(NC(=O)C2C(c3ccccc3)=C2c2ccccc2)c1C`: the displacement was 5.5%.

(Values after PubChem BioAssay AID1240 (Sanford-Burnham Center for Chemical Genomics, 2008).)
